Source: PubChem BioAssay AID1159614 (National Center for Advancing Translational Sciences (NCATS), 2016)
The whole screen tested about 45,000 compounds, of which about 65 (0.1%) were called active. Calls follow the shape of the dose curve; as a rule, active = well fitted activation curve with a large enough effect; inconclusive = small, poorly fitted or top-dose-only effect; inactive = no such curve, though single readings can be large or run the other way. Some of the results follow.

target: Galactocerebrosidase (Homo sapiens) (UniProt P54803); experiment: A Novel Cell-Based Assay to Identify Small Molecules for B -Galactocerebrosidase; conditions: 145M-Twi-hGALC-G270D cells (Twitcher mouse brain line with human GALC G270D), HMU-beta-Gal fluorescence, 48 h; series mostly up to 57.5 µM; activation: at the top concentration; also: 0% is about no effect; nearly all actives have a fitted effect of over 65% in size
Outline: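 Live 145M-Twi cells (Twitcher mouse brain-derived, GALC-null) stably expressing human GALC-G270D, with a wild-type GALC line, were compound-treated. Residual GALC activity was then read as fluorescence from 0.1 mM final HMU-β-gal at pH 5.2; higher signal means activation.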

UniProt P54803, sequence (P54803 whole entry, looked up): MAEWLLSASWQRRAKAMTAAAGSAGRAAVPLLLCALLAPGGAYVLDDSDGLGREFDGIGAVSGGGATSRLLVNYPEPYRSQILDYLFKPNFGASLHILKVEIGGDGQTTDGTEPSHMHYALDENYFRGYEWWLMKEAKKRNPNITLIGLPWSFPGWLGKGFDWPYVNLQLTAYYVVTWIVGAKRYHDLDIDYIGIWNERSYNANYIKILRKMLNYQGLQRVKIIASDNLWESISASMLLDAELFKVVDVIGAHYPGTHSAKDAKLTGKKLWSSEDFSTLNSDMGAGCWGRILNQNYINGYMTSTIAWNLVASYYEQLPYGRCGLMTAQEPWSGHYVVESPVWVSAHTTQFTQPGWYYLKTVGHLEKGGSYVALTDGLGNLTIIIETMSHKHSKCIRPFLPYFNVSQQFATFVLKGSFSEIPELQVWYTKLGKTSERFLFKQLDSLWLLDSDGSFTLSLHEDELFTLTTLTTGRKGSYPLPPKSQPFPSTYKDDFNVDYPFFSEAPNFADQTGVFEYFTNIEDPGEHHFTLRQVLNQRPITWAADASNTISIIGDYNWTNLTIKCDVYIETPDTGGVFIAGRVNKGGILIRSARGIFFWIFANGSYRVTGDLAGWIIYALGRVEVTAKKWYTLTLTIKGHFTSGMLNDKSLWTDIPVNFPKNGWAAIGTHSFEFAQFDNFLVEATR

activation, inactive:
Cc1cc(C)c(S(=O)(=O)NCC(c2ccco2)N2CCN(c3ccccc3)CC2)c(C)c1 (stereo not given) -1.67%
Cc1ccc2c(c1)-c1onc(C(=O)N3CCN(c4cccc(C)c4C)CC3)c1CO2 -6.43%
O=C(CN1CCN(Cc2ccc(F)cc2)C1=O)NCc1ccccc1 -2.77%
Cc1cc(C(F)(F)F)c2c(N)c(C(=O)Nc3c(Cl)cccc3Cl)sc2n1 -14.4%
COc1ccc(Nc2ncnc3c2cnn3C)c(OC)c1 -5.19%
Cc1nn(-c2ccccc2)c2c1cc1c(=O)[nH]c(=O)nc-1n2-c1cccc(C(F)(F)F)c1 0.138%
O=C(NCCSc1c(-c2ccc(Cl)cc2)[nH]c2ccccc12)c1ccc(S(=O)(=O)N2CCOCC2)cc1 -14%
Cc1ccc(S(=O)(=O)c2nc(-c3ccccc3)oc2N2CCCCCC2)cc1 -41.2%
Cc1cccc(OCC(=O)N(Cc2cccc(Cl)c2)Cc2ccco2)c1C -12%
CC(C)S(=O)(=O)c1oc(-c2ccc(F)cc2)nc1S(=O)(=O)c1ccc(F)cc1 -20%
COc1ccc2cc(-c3cn4c(n3)sc3cc(F)ccc34)c(=O)oc2c1 -7.76%
Cc1ccccc1CSc1nc(-c2ccccc2)nc2c1Cc1c(CO)cnc(C)c1O2 -9.17%
COc1cccc(C(=O)NCC(c2ccc(N(C)C)cc2)N2CCOCC2)c1OC (stereo not given) -27.3%
COc1ccc(/C=C/c2onc(C)c2S(=O)(=O)N2CCC(C(=O)N3CCC(C)CC3)CC2)cc1 -24.7%
COc1cccc(C2=NN(C(C)=O)C(c3cn(-c4ccccc4)nc3-c3cccs3)C2)c1 (stereo not given) -10.1%
CCCCNC(=O)CCn1c(=O)c2ccccc2n(Cc2cc(C)ccc2C)c1=O -6.98%
CCOc1ccc(CCNC(=O)CCc2cn(Cc3ccc(C)cc3)c3ccccc23)cc1 -7.96%
CC1CCN(S(=O)(=O)c2ccc3c(c2)N(CC(=O)N2CCN(c4ccc(Cl)cc4)CC2)C(=O)CO3)CC1 -3.78%
CC(C)CCNC(=O)N1CCN(S(=O)(=O)c2ccc3c(ccn3C)c2)CC1 -12%
CCOC(=O)c1c(S(=O)(=O)N2CCCC(C(=O)Nc3cc(C)ccc3OC)C2)c(C)n(C)c1C (stereo not given) -14%
COc1ccc2[nH]cc(CCNC(=O)Nc3ccc(F)cc3)c2c1 -24.6%
Cc1ccc(C)c(N2CCN(C(=O)c3cc(S(=O)(=O)N4CCCCC4)cn3C)CC2)c1 -6.08%
O=C(c1ccc(CSc2nc3ccncc3n2Cc2ccccc2F)cc1)N1CCCCCC1 -43.8%
CCCC(=O)Nc1nnc(SCc2cc(=O)c3cc(C)ccc3[nH]2)s1 -11.1%
CC(C[N+](C)(C)C)OC(N)=O (stereo not given) -11.6%
CCc1ccccc1N1CC(c2nc3ccccc3n2CC(C)C)CC1=O (stereo not given) -24.3%
CCC(C)NC(=O)C1CCN(C(=O)c2cc3sccc3n2Cc2ccc(Cl)cc2)CC1 (stereo not given) -0.0666%
Cc1ccc(C)c(S(=O)(=O)c2nnn3c2nc(N2CCCC2)c2sccc23)c1 -14.4%
COc1ccc(Nc2oc(-c3ccc(COc4ccc(OC)cc4)o3)nc2C#N)cc1 -24.3%
O=C(Cn1ncc2c3ccccc3n(Cc3ccc(Cl)cc3)c2c1=O)NCCCc1ccccc1 -11.9%
CC(C)c1ccc(Nc2cc(C(=O)NCCc3ccccc3)c3ccccc3n2)cc1 -9.54%
CC(=O)Nc1ccc(-n2cc3c(c2-c2ccc(C)cc2)c(=O)n(C)c(=O)n3C)cc1 -16%
Cc1oc(-c2ccc(C(=O)Nc3ccc(F)cc3F)cc2)nc1COc1ccccc1 -9.31%
CCC(=O)Nc1ccccc1-c1nc2ccccc2n(C(CC)C(=O)Nc2cccc(C(C)=O)c2)c1=O (stereo not given) -6.43%
CCCCN(CC)CCCn1cnc2c([nH]c3ccc(Cl)cc32)c1=O 1.4%
CC(C)(C)C1CCc2nc(NC(=O)COc3ccc(F)cc3)sc2C1 (stereo not given) -17.4%
Cn1cc(C(=O)O)c(=O)c2cc(S(=O)(=O)N3CCCCC3)ccc21 -17.7%
Cc1ccc(CN2C(=O)c3ccccc3S(=O)(=O)c3ccc(C(=O)OCC4CCCO4)cc32)cc1 (stereo not given) -4.55%
Cc1ccc(NC(=O)C(Cc2ccccc2)NS(=O)(=O)c2ccc3c(c2)c(=O)n(C)c(=O)n3C)cc1 (stereo not given) -13.4%
CCN(C(=O)c1cc(S(=O)(=O)N2CCOCC2)cn1C)c1ccc(OC)cc1 -8.78%
CCOc1nc(NC(=O)NS(=O)(=O)Oc2ccc(Cl)cc2)nc(-c2ccccc2)n1 -13%
CCCC(=O)Oc1c(Sc2ccc(Cl)cc2)c(C)nn1-c1ccccc1 -25.7%
Cn1c(SCC(=O)Nc2ccc(F)cc2)nc2c([nH]c3ccccc32)c1=O 17.3%
COc1cccc(-c2cc(C(=O)NCc3ccccc3)[nH]n2)c1 -11.6%
CN(C)C(=O)c1ccc2c(c1)N(CC(=O)NCc1ccc(F)cc1)C(=O)C1CCCCN21 (stereo not given) -14.1%
CC(=O)c1ccc(NC(=O)Cn2c(-n3nc(C)cc3C)nc(C)cc2=O)cc1 -13.1%
COc1ccc(CCNC(=O)CCn2c(=O)c3ccccc3n(CC(=O)Nc3cccc(C)c3)c2=O)cc1OC -10.7%
COc1cc(OC)cc(-c2nnc(SCC(=O)N3CCC(C)CC3)o2)c1 -10.1%
Cc1cc(C(C#N)c2ccc(Cl)cc2)c(Cl)cc1NC(=O)c1cc(I)cc(I)c1O (stereo not given) -20.4%
Cc1ccc2c(c1)cc1c(=O)n(CC(=O)NCc3ccco3)nc(C)n12 -17%
COc1ccc(OC)c(C2C(C(N)=O)=C(C)Nc3nc(-c4cccc(Cl)c4)nn32)c1 (stereo not given) -15.3%
Cc1cccn2c(=O)c3cc(C(=O)NCCc4ccc(S(N)(=O)=O)cc4)n(C)c3nc12 -2.12%
CC(C)(C)c1ccc(OCC(=O)N(Cc2ccco2)Cc2ccccc2F)cc1 -12%
COc1ccc(Nc2ncc(C(=O)Nc3cc(C)ccc3OC)c3ccccc23)cc1 -0.865%
Cc1ccc(-n2nc(C)c3c(C)cc(=O)n(CC(=O)NCc4ccc(OC(C)C)cc4)c32)cc1 9.12%
O=C(COc1ccc(F)cc1)Nc1cccc(OCc2cc(=O)n3ccccc3n2)c1 -15.1%
COc1ccc(F)cc1NC(=O)C1CCN(c2nc(-c3ccc(OC)c(OC)c3)no2)CC1 -9.95%
FC(F)(F)c1ccc(C2=Nc3ccccc3NC(c3cccs3)=N2)cc1 -6.64%
Cc1ccc(NC(=O)c2ccc(=O)n(CC(=O)Nc3cc(C)cc(C)c3)n2)cc1 -5.88%
COc1ccc(-c2noc(C(C)NC(=O)c3ccco3)n2)cc1 (stereo not given) -32.3%
